# Experimental data reported in PubChem BioAssay AID488969 (Vanderbilt High Throughput Screening Facility, 2010).
# Over roughly 110,000 compounds, “z-score” has its median near -0.1; the highest 2% begin near 2. The list shows a part of the results. Calls of active or inactive are those of the source.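 Rule for the calls: active = z-score in the third read window above 3 or below -3; inactive = the rest.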
# Target: Metabotropic glutamate receptor 8 (Rattus norvegicus) (UniProt P70579)
# Assay: rat mGluR8 modulators via GIRK flux, primary screen, cell-based, thallium flux, HTS (AID 488969)
# Conditions: HEK293 rat mGluR8, GIRK (G protein-gated inwardly rectifying potassium channel) thallium flux, FluoZin2; at 10 µM; stronger effect = higher value; submaximal glutamate (EC20) added with thallium
# UniProt P70579, sequence (P70579 whole entry, looked up): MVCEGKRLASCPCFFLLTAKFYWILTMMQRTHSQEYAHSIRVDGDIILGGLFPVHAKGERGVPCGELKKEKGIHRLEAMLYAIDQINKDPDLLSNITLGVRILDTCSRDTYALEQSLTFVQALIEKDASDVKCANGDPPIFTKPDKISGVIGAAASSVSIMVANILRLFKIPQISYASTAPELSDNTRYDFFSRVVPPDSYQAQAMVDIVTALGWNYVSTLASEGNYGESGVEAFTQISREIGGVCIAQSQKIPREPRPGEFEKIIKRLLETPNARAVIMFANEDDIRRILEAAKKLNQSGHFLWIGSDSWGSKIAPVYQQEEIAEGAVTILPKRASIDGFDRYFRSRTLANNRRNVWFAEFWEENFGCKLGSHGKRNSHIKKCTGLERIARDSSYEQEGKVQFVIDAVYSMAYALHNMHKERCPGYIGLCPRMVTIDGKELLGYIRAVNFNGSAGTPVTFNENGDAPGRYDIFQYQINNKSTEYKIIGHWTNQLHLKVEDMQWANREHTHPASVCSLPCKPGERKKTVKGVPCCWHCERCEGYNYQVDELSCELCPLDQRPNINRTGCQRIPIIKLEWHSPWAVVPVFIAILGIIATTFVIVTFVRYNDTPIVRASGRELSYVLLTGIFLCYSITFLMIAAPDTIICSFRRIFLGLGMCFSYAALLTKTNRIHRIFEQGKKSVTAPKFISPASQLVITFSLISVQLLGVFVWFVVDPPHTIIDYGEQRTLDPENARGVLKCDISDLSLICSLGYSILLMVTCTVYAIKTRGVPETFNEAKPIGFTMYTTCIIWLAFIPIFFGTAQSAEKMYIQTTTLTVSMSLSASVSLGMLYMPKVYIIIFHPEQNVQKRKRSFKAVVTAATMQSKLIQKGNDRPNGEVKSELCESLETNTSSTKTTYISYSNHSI
row,Compound,z-score
1,CCOC(=O)c1c(NC(=O)c2csc(C)c2)sc(C(C)=O)c1C,-0.0265
2,COc1ccc(/C=C/c2c([N+](=O)[O-])c(=O)n(C)c(=O)n2C)cc1OC,-0.0359
3,CCOC(=O)CSc1nnc(CNc2cccc(Cl)c2)n1C,1.12
4,O=C(Cc1ccc2c(c1)OCCO2)N1CCN(S(=O)(=O)c2cccc(Cl)c2Cl)CC1,0.22
5,Cc1cc(Cl)ccc1NC(=S)NCCCO,-0.166
6,CC(/C=N/NC(=O)c1cc(-c2cccnc2)nc2c1c(C)nn2-c1ccccc1)=C\c1ccccc1,0.285
7,CCCCc1cc2c(c(NC(C)=O)n1)c(=O)oc1ccccc12,0.0335
8,CCCCN=C(Nc1ccc(Cl)cc1)c1cccnc1,-0.27
9,Cc1cccc(Cn2cnc3c(NS(C)(=O)=O)c(C)c(C)cc32)c1,-0.78
10,COc1ccc(OC)c(S(=O)(=O)N2CCC(C(=O)Nc3cccc(C)c3C)CC2)c1,1.35
11,CCOC(=O)c1ccc(NS(=O)(=O)c2ccc(SC)cc2)cc1,-0.12
12,CS(=O)(=O)N1CCC(C(=O)Nc2ccccc2)CC1,0.473
13,O=C(Nc1ccc(OCC(F)(F)C(F)F)c(C(F)(F)F)c1)c1ccc(Cl)cc1,-0.245
14,O=C(NCC1COc2ccccc2O1)c1cc2ccccc2o1 (stereo not drawn),-0.241
15,CCOC(=O)c1cn(Cc2c(C)c(C)c(C)c(C)c2C)nn1,-0.301
16,Cc1cc2c3c(c1C)C1(C(=O)N3C(C)(C)CC2C)C(C#N)=C(N)OC2=C1C(=O)CC(C)(C)C2 (stereo not drawn),0.16
17,CCOCCCNC(=O)Cn1cc2c(n1)CCCCC2,-1.3
18,CC(=O)c1c(C)[nH]c(C(=O)OCC(=O)Nc2ccc(Cl)cc2[N+](=O)[O-])c1C,-0.446
19,COC(=O)c1sc(NC(=O)c2cccc([N+](=O)[O-])c2)c(C(N)=O)c1C,-0.343
20,CCCCN(CCCC)c1ccc(C(=O)c2ccccc2C(=O)O)c(O)c1,active: -3.18
21,O=C(COC(=O)c1ccc(S(=O)(=O)Nc2ccccc2)cc1)NCc1ccco1,-0.454
22,CC1CC(C)CN(C(=O)c2ccc3c(c2)N(Cc2ccccc2)CCS3)C1 (stereo not drawn),0.328
23,CC(NC(=O)C1C2C=CC(C2)C1C(=O)O)c1ccccc1 (stereo not drawn),0.126
24,COc1ccc(NC(=O)C2CCCN(S(=O)(=O)c3cccnc3)C2)cc1 (stereo not drawn),-0.432
25,CN(CC(=O)Nc1ccc(Cl)cc1)C(=O)c1cccc(S(=O)(=O)N(C)C)c1,-0.335
26,COCCN(Cc1cc2ccc(C)cc2n2nnnc12)Cc1nnnn1C(C)(C)C,-0.471
27,CCN1CCN(C(=O)C(NS(=O)(=O)c2ccc3nc(C)sc3c2)C(C)C)CC1 (stereo not drawn),-0.175
28,COc1ccc(CCN(Cc2cccs2)S(=O)(=O)c2ccc(S(=O)(=O)N3CCC(C)CC3)cc2)cc1OC,-0.101
